In patent US10509035B2, “Antibodies, antibody drug conjugates and methods of use” (GAMAMABS PHARMA, priority 2015, dated 2019):

Experiments:
[1] = tested on: COV434 AMHR-II transfected cell line; experiment: Antibody internalization (flow cytometry and immunofluorescence imaging); format: cell-based
Procedure: Antibody mediated internalization were assessed by flow cytometry analysis and by immunofluorescence imaging. Flow cytometry experiments was done on the two expressing AMHR-II cell lines: COV434 WT with low level of expression and COV434-AMHR-II transfected cell line with high level of expression. Briefly, 5×10^5 cells were incubated with 3C23K at 10 μg/ml and incubated 30 min at 4° C. After washes, DMEM/GlutaMax (Gibco) medium, cold or pre-warmed at 37° C., was added and incubated at 4° C. or 37° C. at different time points (15 min, 30 min and 60 min). Phycoerythrin-conjugated anti-human IgG antibody (1:200, Beckman-Coulter) was added for 30 min at 4° C. FACS analysis of the resuspended cells was done on a BD Accuri™ C6 flow cytometer (BD Bioscience). As depicted in FIGS. 9A and 9B, the internalization of the 3C23K observed at 37° C. is fast whatever the level of AMHR-II expression. For immunofluorescence imaging experiments, COV434 AMHR-II transfected cell line were grown on poly-D lysine coated glass coverslips overnight at 37° C. at a density of 75000 cells/cm^2. […] Internalization was quantified by counting the number of visible vesicles in cell section at different incubation time using Image J software.
The internalization capacity of the K4D24 and 6C59 variants was assayed by fluorescence cytometry analysis in the same manner as in Example 8 except for the concentrations used. […]

[2] = biological target: T1, AMHR2 receptor expressed at the surface membrane of the COV434 AMHR2 transfected cell line (Homo sapiens, UniProt Q16671); experiment: FACS binding to AMHR-II receptor at the surface of the COV434 AMHR-II transfected cell line; settings: concentrations 0.5 to 75 μg/ml, Hill slope fit (Example 4)
T1 construct: expressed in transfected cells; host or cells: COV434
T1 sequence (Q16671 18-573): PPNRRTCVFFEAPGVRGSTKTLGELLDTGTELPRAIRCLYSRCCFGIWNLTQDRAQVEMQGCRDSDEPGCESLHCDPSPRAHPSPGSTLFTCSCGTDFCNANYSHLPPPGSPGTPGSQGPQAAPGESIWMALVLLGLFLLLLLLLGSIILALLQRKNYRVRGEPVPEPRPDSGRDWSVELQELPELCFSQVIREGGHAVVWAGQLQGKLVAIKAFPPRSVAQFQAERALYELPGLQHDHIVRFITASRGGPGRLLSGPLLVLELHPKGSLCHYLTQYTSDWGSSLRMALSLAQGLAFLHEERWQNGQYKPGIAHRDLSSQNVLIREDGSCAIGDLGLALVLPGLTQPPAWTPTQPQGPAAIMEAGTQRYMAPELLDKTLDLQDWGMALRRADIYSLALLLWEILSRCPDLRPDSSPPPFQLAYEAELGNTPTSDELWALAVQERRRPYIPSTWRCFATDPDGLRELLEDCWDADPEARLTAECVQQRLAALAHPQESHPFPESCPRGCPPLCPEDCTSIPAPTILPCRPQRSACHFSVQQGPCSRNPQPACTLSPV
Procedure: The COV434 AMHR-II transfected and the COV434 WT cell lines were maintained in DMEM/GlutaMax (Gibco) supplemented with 10% FBS, penicillin 100 U/ml and Streptomycin 100 μg/ml. Geneticin at 666 μg/ml was added for the COV434 AMHR-II transfected cell line. […] After washes, Phycoerythrin-conjugated anti-human IgG antibody (1:200, Beckman-Coulter) was added for 1 hour at room temperature. FACS analysis of the resuspended cells was done on a BD Accuri™ C6 flow cytometer (BD Bioscience).
The binding capacity of the anti-AMHR-II antibody variants K4D24 and 6C59 to the AMHR-II expressing cell lines was evaluated by flow cytometry analysis in the same manner as example 4. FACS analysis with COV434-AMHR-II transfected cell line is described in FIG. 16. The Kapparent of the K4D24 and 6C59 variants were improved by a factor of 20 and 40 fold respectively as compared to the 3C23K (0.098 μg/ml and 0.05 μg/ml versus 2.2 μg/ml). The binding capacity of these variants was also assayed on the low expressing AMHR-II COV434 WT cell line. In this setting the binding was evaluated with three concentrations of variants (25, 10 and 5 μg/ml) and three concentrations of 3C23K (50, 25 and 10 μg/ml).

B1: GM103 (conjugate)
heavy: QVRLVQSGAEVKKPGASVKVSCKASGYTFTSYHIHWVRQAPGQRLEWMGWIYPGDDSTKYSQKFQGRVTITRDTSASTAYMELSSLRSEDTAVYYCTRGDRFAYWGQGTLVTVSS[human IgG1 constant region left out here]
light: DIQMTQSPSTLSASVGDRVTITCRASSSVRYIAWYQQKPGKAPKLLTYPTSSLKSGVPSRFSGSGSGTEFTLTISSLQPDDFATYYCLQWSSYPWTFGGGTKVEIKRTVAAPSVFIFPPSDEQLKSGTASVVCLLNNFYPREAKVQWKVDNALQSGNSQESVTEQDSKDSTYSLSSTLTLSKADYEKHKVYACEVTHQGLSSPVTKSFNRGEC
[1]; flow cytometry
  time in which the majority of the AMHR2 labeling disappeared from the cell surface: ≤ 60 min
[1]; immunofluorescence imaging and flow cytometry
  internalization of the conjugate compared with unconjugated 3C23K: retains its property of rapid internalization
[2]
  KDapparent: 3.1 µg/mL
